{
  "source": "the supplement of paper PMC11417369",
  "note": "± gives the standard deviation of the averaged measurements. The list shows a part of the results.",
  "data": [
    {"system": "PfAP2-EXP AP2 domain (GST-tagged)", "test": "gcPBM binding intensity (ln(normalized median fluorescence intensity)); higher = stronger DNA binding", "outline": "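An Agilent 4 × 180k array of primer-extended double-stranded 36-bp intergenic genomic probes, with negative controls, was incubated for 1 h with GST-tagged P. falciparum DNA-binding domains expressed in E. coli. Alexa488 anti-GST antibody detected bound protein, scanned at 488 nm. Binding intensity is the highest Masliner-normalised natural-log median intensity across replicate spots of either probe orientation.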", "values": [
      {"sequence": "TTTTAAACAAAAATTTGTACACAATAATTAAATATA [XGTACX_site6755]", "gcPBM binding intensity (ln)": "8.52 ± 0.5"},
      {"sequence": "CATTTTAAAGAAAATACACACAAAAATAAATATATA [CACACA_site1395]", "gcPBM binding intensity (ln)": "8.54 ± 0.47"},
      {"sequence": "TTTATATTATTTTAAACATGCACAAGTATAATTTAT [TGCATGCA_site233]", "gcPBM binding intensity (ln)": "8.43 ± 0.28"},
      {"sequence": "TAAATTTAGAAACACACACACATATATATATATATA [CACACA_site847]", "gcPBM binding intensity (ln)": "10.3 ± 0.4"},
      {"sequence": "TGTGGGAATAACCACACACACACACGCATATAAATA [CACACA_site7634]", "gcPBM binding intensity (ln)": "8.66 ± 0.54"},
      {"sequence": "CTCATAAAAATAACGTTAACATAAATTTATTGTGAT [XGTACX_negctrl_site169]", "gcPBM binding intensity (ln)": "8.81 ± 0.57"},
      {"sequence": "TGAACAGACGAGCACACACACACATATATATATATA [CACACA_site1019]", "gcPBM binding intensity (ln)": "10.2 ± 0.26"},
      {"sequence": "TTTTCATATGAACAATGTACACATCGTATAATTCTG [XGTACX_site4756]", "gcPBM binding intensity (ln)": "8.69 ± 0.44"},
      {"sequence": "ATACATATTAAAGGATGTACACTTATATTTTTTAGA [XGTACX_site5406]", "gcPBM binding intensity (ln)": "8.25 ± 0.2"},
      {"sequence": "TATATGTCAATATCTACACACATATATATAATTATT [CACACA_site3156]", "gcPBM binding intensity (ln)": "8.44 ± 0.47"},
      {"sequence": "AATATAAAACATATCACACATATGTATTTATGTATA [CACACA_site5763]", "gcPBM binding intensity (ln)": "8.23 ± 0.33"},
      {"sequence": "AAAAAAAAAAAAACATGTACATAAATGTAAAAAAGT [XGTACX_site8158]", "gcPBM binding intensity (ln)": "8.67 ± 0.88"},
      {"sequence": "AACATACACATATACACACACACATATATACATATA [CACACA_site1093]", "gcPBM binding intensity (ln)": "8.72 ± 0.44"},
      {"sequence": "ATTTTTTTTCTTTTTTTTTTACATTTTTTTCTTTTT [CACACA_negctrl_site1289]", "gcPBM binding intensity (ln)": "8.51 ± 0.45"},
      {"sequence": "AATTAAGTTAAACATTAAAAAAAACAAAAAATTAAA [CACACA_negctrl_site1333]", "gcPBM binding intensity (ln)": "8.45 ± 0.49"},
      {"sequence": "GCTTTTGAAAATATACACATGTTAGGAATACAGGGG [TGCATGCA_negctrl_site480]", "gcPBM binding intensity (ln)": "9.26 ± 0.59"},
      {"sequence": "TATAATAACAATTTAGTGCATATAATAATATTTTAT", "gcPBM binding intensity (ln)": "8.39 ± 0.24"},
      {"sequence": "ACATATAAAATGTATACACACAAATATTACAGAGAT [CACACA_site4920]", "gcPBM binding intensity (ln)": "8.78 ± 0.48"},
      {"sequence": "ATATATACATATATATGTACGTATATTTTTATTTCT [XGTACX_site6198]", "gcPBM binding intensity (ln)": "8.56 ± 0.33"},
      {"sequence": "ATTTAACAACTTCAAACACACAATATAGATTTATAT [CACACA_site7067]", "gcPBM binding intensity (ln)": "8.44 ± 0.4"},
      {"sequence": "TATAAACCCACCTACACACACAACGTAAATGCATTG [CACACA_site2238]", "gcPBM binding intensity (ln)": "8.98 ± 0.77"},
      {"sequence": "AATTTAAACAAGGATCCACACACCCCAAAAAAAAAA [CACACA_site8125]", "gcPBM binding intensity (ln)": "9.33 ± 0.65"},
      {"sequence": "AATAATTAAAATTATCTACACACCTTTATAAATATA [CACACA_site9300]", "gcPBM binding intensity (ln)": "8.13 ± 0.46"},
      {"sequence": "CCTGAACACATACATACACACACACTAATAAAAAAA [CACACA_site8023]", "gcPBM binding intensity (ln)": "8.61 ± 0.52"},
      {"sequence": "GCCATTAATTTATACACACACATTATGATTTTTTAT [CACACA_site754]", "gcPBM binding intensity (ln)": "8.86 ± 0.28"},
      {"sequence": "TACAAACTATGATGCACACATATATATATGTATACA [CACACA_site1226]", "gcPBM binding intensity (ln)": "8.7 ± 0.37"},
      {"sequence": "AAAATGTGCCCACGCGTACACACAAAAAAAGAAAAA [CACACA_site2004]", "gcPBM binding intensity (ln)": "8.665 ± 0.064"},
      {"sequence": "ATGCATATGTTTATTGCACACACCAAAAAGAAAACA [CACACA_site403]", "gcPBM binding intensity (ln)": "8.88 ± 0.31"},
      {"sequence": "ATACCAAATGAATAATGTACATACGAACATACATAT [XGTACX_site1301]", "gcPBM binding intensity (ln)": "8.47 ± 0.41"},
      {"sequence": "AAAAGATTAAGTAGAATAATGTTCTTTCCCAACATA [GTGCAC_negctrl_site223]", "gcPBM binding intensity (ln)": "8.04 ± 0.35"},
      {"sequence": "ATATTTTTAACCAAGGACACAATTCTTGTATTGTTA [CACACA_negctrl_site1326]", "gcPBM binding intensity (ln)": "8.26 ± 0.38"},
      {"sequence": "GTACATTGTAAGGATGGAAAAGCTAAACATTATAAT [XGTACX_negctrl_site339]", "gcPBM binding intensity (ln)": "8.93 ± 0.56"},
      {"sequence": "TAAGTCGTTATAAGCACACACATAAATAAAAATAAA [CACACA_site1574]", "gcPBM binding intensity (ln)": "8.72 ± 0.38"},
      {"sequence": "ATATATTTATATAGGTGTACATATTTTGCTATTCAA [XGTACX_site5199]", "gcPBM binding intensity (ln)": "8.46 ± 0.38"},
      {"sequence": "TCAATTTTTTAATGTTGTACTTTGTAAAAAAAAATA [XGTACX_site8481]", "gcPBM binding intensity (ln)": "8.35 ± 0.17"},
      {"sequence": "AAGGGTTATAAAAATTGTACTTTTTTTATTTTTTTT [XGTACX_site1313]", "gcPBM binding intensity (ln)": "8.5 ± 0.41"},
      {"sequence": "TTATCTTAATTGTGATTATAAAGATATTCTTTCTAT [GTGCAC_negctrl_site410]", "gcPBM binding intensity (ln)": "8.06 ± 0.35"},
      {"sequence": "CAACCTCATAATATTTAACACACAAAATTATATGTA [CACACA_site8496]", "gcPBM binding intensity (ln)": "8.2 ± 0.36"},
      {"sequence": "CATTTAGAATAAGGCACACATAAAGAACACTTTCCA [CACACA_site130]", "gcPBM binding intensity (ln)": "8.54 ± 0.44"},
      {"sequence": "TATTCTGGTGTAAATGCACACAGAAGAAGAAAAAAA [CACACA_site9225]", "gcPBM binding intensity (ln)": "8.71 ± 0.2"},
      {"sequence": "AAGGACACCTTCAAAACACACATACAAATAAATAGA [CACACA_site5771]", "gcPBM binding intensity (ln)": "8.79 ± 0.5"},
      {"sequence": "AATAAATAAAAAAAAAAAAAAAAAAAAAAAAAAAAA [XGTACX_negctrl_site343]", "gcPBM binding intensity (ln)": "7.87 ± 0.33"},
      {"sequence": "TTTTTTTTTTTTGTAATACACACCACTATATGTTAT [CACACA_site1844]", "gcPBM binding intensity (ln)": "8.56 ± 0.49"},
      {"sequence": "TTCTGTTGGAATATATGTACATAATAAAAAAAAATA [XGTACX_site1741]", "gcPBM binding intensity (ln)": "8.62 ± 0.45"}
    ]}
  ]
}
